Laboratory results reported in the supplement of paper PMC4967469.
IC50 is the fitted dose that halves viability relative to control wells, and lower means more sensitive; where the fit passes the top or lowest dose, that dose stands as a limit. AUC is the area under the same curve over the 256-fold range up to the top dose, as a fraction; values near 1 show little effect. For part of these data: The top dose, if marked as inferred, is not printed in the source and was worked back from the curve model. For part of these data: An entry number marks a drug with two screens in the source, which often give different values.

Columns and labels:
Assay in all cases: Viability of human cancer cell lines after 72 h of drug (GDSC screen)
AZD-0530 = compound: CN1CCN(CCOc2cc(OC3CCOCC3)c3c(Nc4c(Cl)ccc5c4OCO5)ncnc3c2)CC1 [AZD-0530]; conditions: top dose 2 µM
Experimental: (§1)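 Human cancer cell lines in 384-well plates, medium with 10% serum, drug for 72 h over a 256-fold dose range (nine 2-fold or five 4-fold steps up to the top dose). Adherent lines were fixed and stained with the nucleic acid dye Syto60, suspension lines read with resazurin; signal relative to control wells, capped at 0 and 100%. One two-parameter sigmoid per drug and line, fitted in a mixed model over all curves with the slope shared within a line.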

Epothilone B = compound: C/C(=C\c1csc(C)n1)[C@@H]1C[C@@H]2O[C@]2(C)CCC[C@H](C)[C@H](O)[C@@H](C)C(=O)C(C)(C)[C@@H](O)CC(=O)O1 [Epothilone B]; conditions: top dose 0.032 µM; top dose inferred
Experimental: as §1

Pyrimethamine = compound: CCc1nc(N)nc(N)c1-c1ccc(Cl)cc1 [Pyrimethamine]; conditions: top dose 20 µM; top dose inferred
Experimental: as §1

Y-39983 = compound: C[C@@H](N)c1ccc(C(=O)Nc2ccnc3[nH]ccc23)cc1 [Y-39983]; conditions: top dose 20 µM; top dose inferred
Experimental: as §1

TPCA-1 = compound: NC(=O)Nc1sc(-c2ccc(F)cc2)cc1C(N)=O [TPCA-1]; conditions: top dose 20 µM
Experimental: as §1

PHA-793887 = compound: CC(C)CC(=O)Nc1n[nH]c2c1CN(C(=O)C1CCN(C)CC1)C2(C)C [PHA-793887]; conditions: top dose 10.24 µM
Experimental: as §1

PLX4720 = compound: CCCS(=O)(=O)Nc1ccc(F)c(C(=O)c2c[nH]c3ncc(Cl)cc23)c1F [PLX4720]; conditions: top dose 10 µM
Experimental: as §1

[1] = screen: GDSC drug entry 1371, top dose inferred

Cell Line | AUC (AZD-0530) | IC50 (AZD-0530) | AUC (Epothilone B) | IC50 (Epothilone B) | AUC (Pyrimethamine) | IC50 (Pyrimethamine) | AUC (Y-39983) | IC50 (Y-39983) | AUC (TPCA-1) | IC50 (TPCA-1) | AUC (PHA-793887) | IC50 (PHA-793887) | AUC (PLX4720; screen: GDSC drug entry 1036) | IC50 (PLX4720; screen: GDSC drug entry 1036) | AUC (PLX4720; [1]) | IC50 (PLX4720; [1])
ME-1 (acute myeloid leukaemia, suspension) | 0.987 | > 2 µM | 0.89 | > 0.032 µM | 0.987 | > 20 µM | 0.988 | > 20 µM | 0.803 | 10.8 µM | 0.986 | > 10.2 µM | 0.984 | > 10 µM | 0.988 | > 10 µM
MEG-01 (chronic myeloid leukaemia, suspension) | 0.582 | 0.206 µM | 0.477 | 0.00174 µM | 0.763 | 6.8 µM | 0.973 | > 20 µM | 0.497 | 1.23 µM | 0.819 | 5.37 µM | 0.936 | > 10 µM | 0.932 | > 10 µM
MFM-223 (breast, adherent) | 0.988 | > 2 µM | 0.984 | > 0.032 µM | 0.985 | > 20 µM | 0.983 | > 20 µM | 0.746 | 6.29 µM | 0.963 | > 10.2 µM | 0.978 | > 10 µM | 0.988 | > 10 µM
MHH-PREB-1 (B-cell leukaemia, suspension) | 0.976 | > 2 µM | 0.622 | 0.00416 µM | 0.862 | 14.3 µM | 0.867 | 14.9 µM | 0.466 | 1.02 µM | 0.653 | 1.61 µM | 0.976 | > 10 µM | 0.947 | > 10 µM
ML-2 (acute myeloid leukaemia, suspension) | 0.989 | > 2 µM | 0.542 | 0.00257 µM | 0.817 | 9.66 µM | 0.598 | 2.25 µM | 0.692 | 4.01 µM | 0.42 | 0.397 µM | 0.942 | > 10 µM | 0.988 | > 10 µM
MLMA (hairy cell leukaemia, semi-adherent) | 0.953 | > 2 µM | 0.796 | 0.0152 µM | 0.985 | > 20 µM | 0.868 | 18.6 µM | 0.419 | 0.748 µM | 0.357 | 0.257 µM | 0.944 | > 10 µM | 0.971 | > 10 µM
MMAC-SF (melanoma, adherent) | 0.985 | > 2 µM | 0.812 | 0.018 µM | 0.987 | > 20 µM | 0.987 | > 20 µM | 0.986 | > 20 µM | 0.985 | > 10.2 µM | 0.518 | 0.702 µM | 0.444 | 0.437 µM
MN-60 (B-cell leukaemia, suspension) | 0.982 | > 2 µM | 0.972 | > 0.032 µM | 0.982 | > 20 µM | 0.964 | > 20 µM | 0.834 | 13.7 µM | 0.489 | 0.598 µM | 0.988 | > 10 µM | 0.987 | > 10 µM
MOLM-13 (acute myeloid leukaemia, suspension) | 0.9 | > 2 µM | 0.636 | 0.00462 µM | 0.738 | 5.67 µM | 0.54 | 1.6 µM | 0.368 | 0.553 µM | 0.177 | 0.074 µM | 0.966 | > 10 µM | 0.929 | > 10 µM
MOLP-8 (myeloma, suspension) | 0.986 | > 2 µM | 0.537 | 0.00251 µM | 0.987 | > 20 µM | 0.866 | 16.7 µM | 0.54 | 1.6 µM | 0.239 | 0.117 µM | 0.987 | > 10 µM | 0.985 | > 10 µM
MOLT-4 (lymphoblastic leukaemia, suspension) | 0.956 | > 2 µM | 0.555 | 0.00275 µM | 0.766 | 6.09 µM | 0.893 | 15.9 µM | 0.757 | 5.73 µM | 0.695 | 1.99 µM | 0.942 | > 10 µM | 0.966 | > 10 µM
MONO-MAC-6 (acute myeloid leukaemia, suspension) | 0.955 | > 2 µM | 0.811 | 0.0182 µM | 0.834 | 14.1 µM | 0.839 | 14.9 µM | 0.544 | 1.66 µM | 0.496 | 0.623 µM | 0.912 | > 10 µM | 0.937 | > 10 µM
MSTO-211H (mesothelioma, adherent) | 0.923 | > 2 µM | 0.988 | > 0.032 µM | 0.784 | – | 0.991 | > 20 µM | 0.964 | > 20 µM | 0.881 | 8.99 µM | 0.984 | > 10 µM | 0.99 | > 10 µM
MV-4-11 (leukaemia, suspension) | 0.962 | > 2 µM | 0.478 | 0.00177 µM | 0.851 | 11.3 µM | 0.687 | 3.74 µM | 0.54 | 1.58 µM | 0.147 | 0.0698 µM | 0.932 | > 10 µM | 0.96 | > 10 µM
MZ1-PC (pancreas, adherent) | 0.856 | > 2 µM | 0.343 | 0.000658 µM | 0.897 | > 20 µM | 0.877 | > 20 µM | 0.446 | 0.858 µM | 0.408 | 0.336 µM | 0.959 | > 10 µM | 0.832 | 8.67 µM
MZ7-mel (melanoma, adherent) | 0.987 | > 2 µM | 0.725 | 0.00896 µM | 0.691 | 4.4 µM | 0.984 | > 20 µM | 0.841 | 14.6 µM | 0.987 | > 10.2 µM | 0.846 | 7.72 µM | 0.778 | 4.2 µM
